Data: PubChem BioAssay AID485294 (National Center for Advancing Translational Sciences (NCATS), 2010)
Out of some 370,000 compounds screened, about 150 (0.041%) were called active. The shares of active, inactive and inconclusive entries below differ from those in the screen. Calls follow the shape of the dose curve; as a rule, active = well fitted inhibition curve with a large enough effect; inconclusive = small, poorly fitted or top-dose-only effect; inactive = flat fitted curve, though single readings scatter. No potency is given beside an inconclusive call; the fits are too rough.
Also: nearly all actives have a fitted effect of over 25% in size.
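For activity change, negative = inhibition in this document: 0% = no-compound wells and -100% = no-enzyme wells.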
Potency is read from the fitted curve at half-maximal effect; tags tell the direction and shape of the fitted curve.

Each compound was assayed against Beta-lactamase (Escherichia coli (strain K12)) (UniProt P00811) (assay: qHTS Inhibitors of AmpC Beta-Lactamase (assay with detergent)). Settings: AmpC hydrolysis of nitrocefin, absorbance 480 nm, 0.01% Triton; activity change, negative = inhibition: at 114 µM (top of the series).
Sequence of UniProt P00811 (P00811 whole entry, looked up): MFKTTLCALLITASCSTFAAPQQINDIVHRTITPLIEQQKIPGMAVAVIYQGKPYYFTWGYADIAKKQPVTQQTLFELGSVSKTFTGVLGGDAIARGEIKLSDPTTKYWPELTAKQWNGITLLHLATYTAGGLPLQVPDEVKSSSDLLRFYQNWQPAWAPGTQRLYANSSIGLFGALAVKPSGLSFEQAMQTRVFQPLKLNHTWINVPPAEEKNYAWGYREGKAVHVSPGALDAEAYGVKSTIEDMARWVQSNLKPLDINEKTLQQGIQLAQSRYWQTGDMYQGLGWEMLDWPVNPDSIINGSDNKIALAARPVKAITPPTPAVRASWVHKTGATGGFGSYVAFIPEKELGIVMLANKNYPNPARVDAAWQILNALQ
Method in brief: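 20 mM phosphate pH 7.0 + 0.01% (detergent screen) or 0.0001% Triton X-100; 5.3 nM AmpC reagent; cpd preinc 15 min RT; nitrocefin (800 uM stock) to start; A480 q20 s × 4 min; Activity was normalised to no-enzyme and no-compound control wells.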
For `COC(=O)C1CCCCN1C(=O)c1cccc(OC2CCN(C(=O)C3CC3)CC2)c1` (configuration not stated), the Potency was inconclusive [inhibitor, partial curve].
`Cn1nc(C(C)(C)C)cc1C(=O)Sc1cccc(Br)c1` was tested, and the Potency was “inactive”.
`COC(=O)C1=C(C)N(Cc2ccccc2)C(=NCc2ccccc2)N[C@H]1c1ccccc1` was tested, and the Potency was “inactive”.
For `O=C(NCc1ccccn1)c1cccc([N+](=O)[O-])c1`, the Potency was “inactive”.
`COc1ccc(Cl)cc1NC(=O)C/C(C)=N/NC(=O)Cc1ccccc1` was tested, and the Potency was “inactive”.
In the case of `CCOC(=O)c1c(/N=C/C2C(=O)CC(C)(C)CC2=O)sc(C)c1C`, the Potency is reported as inconclusive [inhibitor, partial curve].
`COc1ccc(NC(=O)C2C3C=CC(O3)C2C(=O)O)cc1` (configuration not stated) was tested, and the Potency was inconclusive [inhibitor, partial curve, poor fit].
For `CCN(CC)CCCNC(=O)c1cc(-c2ccc(O)cc2)on1`, the Potency was inconclusive [inhibitor, full curve, poor fit].
With `CC(=O)N1CCc2cc(S(=O)(=O)NCCC(=O)Nc3cc(C)cc(C)c3)ccc21` the Potency was “inactive”.
For `Cc1ccc(C)c(N(CC(=O)NCCSCc2ccco2)S(C)(=O)=O)c1`, the Potency was inconclusive [inhibitor, partial curve].
In the case of `CCc1c(C)sc(NC(=O)c2cc(-c3ccc(OC)cc3)on2)c1C#N`, the Potency is reported as “inactive”.
In the case of `Cc1cccc(NC(=O)c2ccc3ccccc3n2)n1`, the Potency is reported as inconclusive [inhibitor, full curve, poor fit].
In the case of `Cc1ccc(C(C2=C(O)CC(C)(C)CC2=O)C2C(=O)CC(C)(C)CC2=O)s1` (configuration not stated), the Potency is reported as inconclusive [inhibitor, partial curve].
With `COC(=O)c1c(C)[nH]c(C(=O)CN2CCOCC2)c1C` the Potency was inconclusive [inhibitor, full curve, poor fit].
With `CC1(C)CC(=O)C(C=NCC2CCN(C(=O)Nc3ccc(Cl)c(Cl)c3)CC2)=C(O)C1` the Potency was inconclusive [inhibitor, full curve, poor fit].
For `O=C1CCN(Cc2ccccc2)CCN1CCSc1ccccc1`, the Potency was inconclusive [inhibitor, full curve, poor fit].
`O=C1c2ccsc2SCCN1Cc1ccc(Cl)cc1` was tested, and the Potency was inconclusive [inhibitor, full curve, poor fit].
With `N#CC1=C(N)N(c2ccccc2)C2=C(C(=O)CCC2)C1c1ccccc1` (configuration not stated) the Potency was inconclusive [inhibitor, partial curve, poor fit].
In the case of `Cc1cnc(-c2nnc(N(C)C(=O)C3CCOC3)s2)cn1` (configuration not stated), the Potency is reported as inconclusive [inhibitor, full curve, poor fit].
With `COc1cc2nc(N3CCN(C(=O)C4CCCO4)CC3)nc(N)c2cc1OC` (configuration not stated) the Potency was inconclusive [inhibitor, single point].
With `NS(=O)(=O)c1ccc(Cl)cc1[N+](=O)[O-]` the Potency was “inactive”.
For `COc1cccc2sc3ccc(C#CC4(N)CCCCC4)cc3c(=O)c12`, the Potency was inconclusive [inhibitor, full curve, poor fit].
`Cc1ccccc1OCc1nc(-c2ccc(NC(=O)c3ccco3)cc2)no1` was tested, and the Potency was inconclusive [inhibitor, partial curve, poor fit].
With `Cc1ccc(N2C(=O)c3ccc(C(=O)N4CCN(c5ccccc5F)CC4)cc3C2=O)cc1` the Potency was inconclusive [inhibitor, full curve].
In the case of `Cc1ccc(S(=O)(=O)NCCC(=O)N2CCC(C(N)=O)CC2)cc1C`, the Potency is reported as “inactive”.
`CCOCCCn1c(=O)c2ccccc2n2c(=S)[nH]nc12` was tested, and the Potency was “inactive”.
`CC(C)(C)C1CCC(=NNC(=O)CN(c2ccccc2)S(=O)(=O)c2ccccc2[N+](=O)[O-])CC1` (configuration not stated) was tested, and the Potency was inconclusive [inhibitor, full curve, poor fit].
In the case of `O=C1C(=O)N(CCCN2CCOCC2)C(c2ccc(F)cc2)/C1=C(/O)c1ccccc1` (configuration not stated), the Potency is reported as “inactive”.
For `C=CC[n+]1c(C)csc1Nc1ccc(C(=O)O)cc1`, the Potency was inconclusive [inhibitor, full curve, poor fit].
With `COc1ccc2nc(NC(=O)c3ccoc3C)sc2c1` the Potency was inconclusive [inhibitor, full curve, poor fit].
`FC(F)(F)c1ccc(C2[C@H]3CN(Cc4ccc(-c5ccccc5)cc4)[C@H](c4ccccc4)C34CC2(c2ccccc2)C4)cc1` (some centres not stated) was tested, and the Potency was “inactive”.
`Cc1cc(C)n(CCC(=O)N/N=C/c2cccc([N+](=O)[O-])c2)n1` was tested, and the Potency was “inactive”.
With `O=C(CSc1nnc(Cn2c(=O)sc3ccccc32)n1-c1ccccc1)N1CCCC1` the Potency was inconclusive [inhibitor, full curve].
With `CC(C)c1ccc(C2N3CCCN23)cc1` (configuration not stated) the Potency was inconclusive [inhibitor, full curve, poor fit].
For `Cc1ccc(C)c(N2CCN(CCCNC(=O)Cn3cccc3C(=O)c3ccccc3C)CC2)c1`, the Potency was “inactive”.
For `Cc1ccc(-n2nnnc2SCC(=O)Nc2ncc(Cc3ccccc3Cl)s2)cc1`, the Potency was “inactive”.
For `O=C(CSc1nnc(-c2ccc(F)cc2)c2ccccc12)Nc1ccccc1`, the Potency was inconclusive [inhibitor, single point].
With `CN1C(=O)C(=Cc2cn(CC#N)c3ccccc23)C(=O)N(C)C1=O` the Potency was inconclusive [inhibitor, partial curve].
`O=C(NCc1ccccn1)c1nc(-c2cccs2)no1` was tested, and the Potency was inconclusive [inhibitor, single point].
In the case of `CCN(CC)c1ccc(C2C(C(=O)OCCOC)=C(C)NC3=C2C(=O)CC(C)(C)C3)cc1` (configuration not stated), the Potency is reported as inconclusive [inhibitor, full curve, poor fit].
`O=C(OCC(=O)N1CCN(C(=O)c2ccco2)CC1)c1cn(-c2ccccc2)nc1-c1ccccc1` was tested, and the Potency was “inactive”.
With `COc1ccccc1NS(=O)(=O)c1cc(NC(=O)CNC(=O)c2ccc(C)s2)ccc1Cl` the Potency was inconclusive [inhibitor, full curve].
For `CCOC(=O)CC1C(=O)NCCN1S(=O)(=O)c1ccc(Cl)cc1` (configuration not stated), the Potency was “inactive”.
`COc1ccc(NC(=O)c2cc3ccccn3n2)cc1` was tested, and the Potency was inconclusive [inhibitor, full curve, poor fit].
For `Oc1cc(NCc2ccccc2)cc2cccnc12`, the Potency was inconclusive [inhibitor, full curve].
For `Cc1oc(-c2ccc(Cl)cc2)nc1CS(=O)CC(=O)N1CCC2(CC1)OCCO2` (configuration not stated), the activity change, negative = inhibition was inconclusive: -15.9% [inhibitor].
For `COc1ccc(S(=O)(=O)N2c3cc(Cl)ccc3Oc3nc4ccccc4nc32)cc1`, the Potency was “inactive”.
`CC(C)(C)c1ccc(O)c(N)c1` was tested, and the Potency was inconclusive [inhibitor, single point].
In the case of `CC(C)(CNS(=O)(=O)c1ccc(F)cc1)CNS(=O)(=O)c1ccc(F)cc1`, the Potency is reported as inconclusive [inhibitor, full curve, poor fit].
With `NC1=NC(=O)/C(=C/c2ccccc2OS(=O)(=O)c2ccccc2)S1` the Potency was inconclusive [inhibitor, full curve].
With `CCCCNC(=O)C1=CC(c2ccc3c(c2)OCO3)=NS(=O)(=O)N1C` the Potency was “inactive”.
With `O=C(COc1ccc(F)cc1)Nc1nnc(C2CCCCC2)s1` the Potency was inconclusive [inhibitor, partial curve, poor fit].
With `COC(=O)c1cc(N2C(=O)C3C(C2=O)C2(C)C=CC3(C)O2)ccc1Cl` (configuration not stated) the Potency was inconclusive [inhibitor, single point].
With `CCN(CC)S(=O)(=O)c1ccc2c(c1)c(=O)c(C(=O)NCCOC)cn2C` the Potency was inconclusive [inhibitor, full curve, poor fit].
With `OCCCc1nc2ccccc2n1CCc1ccccc1` the Potency was “inactive”.
In the case of `CC1CCN(S(=O)(=O)c2cccc(C(N)=O)c2)CC1`, the Potency is reported as inconclusive [inhibitor, partial curve].
For `CN=C1SC(CC(=O)Nc2c(C)cccc2C)C(=O)N1/N=C/c1cccs1` (configuration not stated), the Potency was inconclusive [inhibitor, full curve, poor fit].
For `CCc1noc(C)c1C(=O)N(C)CC(=O)Nc1ccc(Cl)c(Cl)c1`, the Potency was inconclusive [inhibitor, partial curve, poor fit].
In the case of `Cc1cc2cc(CN3C(=O)c4ccccc4C3=O)ccc2[nH]1`, the Potency is reported as “inactive”.
`O=C(Nc1ccccc1)c1ccc[n+](Cc2ccc([N+](=O)[O-])cc2)c1` was tested, and the Potency was inconclusive [inhibitor, single point].
`COc1ccccc1N(C(=O)c1snc(C(N)=O)c1N)C(C(=O)NCc1ccccc1)c1ccc(C)o1` (configuration not stated) was tested, and the Potency was inconclusive [inhibitor, full curve, poor fit].
In the case of `O=C(NCCCn1ccnc1)C(=O)NCC1OCCCN1S(=O)(=O)c1ccc(F)cc1` (configuration not stated), the Potency is reported as inconclusive [inhibitor, full curve, poor fit].
For `Cc1ccc(NS(=O)(=O)c2cc(-c3n[nH]c(=O)c4ccccc34)ccc2C)cc1`, the Potency was inconclusive [inhibitor, full curve, poor fit].
With `CCc1ccc(Nc2n[n+](C)c(-c3ccncc3)s2)cc1` the Potency was inconclusive [inhibitor, full curve, poor fit].
In the case of `COCCCN(C(=O)CC1OC(=O)c2ccccc21)c1c(N)n(Cc2ccccc2)c(=O)[nH]c1=O` (configuration not stated), the Potency is reported as inconclusive [inhibitor, full curve].
In the case of `COc1cc2c(cc1OC)CN(C(=O)CSc1nc(C)cc(C)c1C#N)CC2`, the Potency is reported as “inactive”.
For `CCNc1nc2c(c(=O)[nH]c(=O)n2C)n1CCCc1ccccc1`, the Potency was inconclusive [inhibitor, full curve, poor fit].
